# PubChem BioAssay AID1508642 (National Center for Advancing Translational Sciences (NCATS), 2021)
# Hit rate of the full screen: of about 43,000 compounds, about 200 (0.47%) were called active. Inconclusive results (about 12%) are left out. Calls come from the whole dose curve; as a rule, active = well fitted cell-killing curve with a large enough effect; inconclusive = small, poorly fitted or top-dose-only effect, or effect the other way; inactive = flat fitted curve, though single readings scatter. The list shows a part of the results.
# Assay: Cell viability qHTS assay in S16 Pmp22-F2sN cells; note: nearly all actives have a fitted effect of over 65% in size
# Details: S16 Pmp22-F2sN Schwann cells (luciferase reporters placed in the Pmp22 gene) viability, CellTiter-Glo, 24 h; series mostly up to 57.5 µM; activity change, negative = cytotoxicity: at the top concentration
# Summary of the method: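 S16 Schwann cells carrying the Pmp22-F2sN reporter, seeded in 1536-well format, were exposed to library compounds for 24 h at 37C. Viability was read as CellTiter-Glo luminescence after 15 min at room temperature.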
# % is set by controls: 0 for no effect and ±100 for the full control effect.
row,SMILES,"activity change, negative = cytotoxicity"
1,CCC(=O)Nc1ccc(-c2nnc3c4ccccc4c(C)nn23)cc1,inactive: 0.475%
2,Cc1ccc(NC(=O)CSc2nc(=O)n(CCCN(C)C)c3c2CCC3)cc1F,inactive: 12.6%
3,CCCc1ccc(S(=O)(=O)N2CCC(Oc3ccc(-n4cnnn4)cc3)CC2)cc1,inactive: -15.9%
4,CNC(=O)c1ccc(Nc2nnc(-c3ccc(C)c(S(=O)(=O)N(C)C)c3)c3ccccc23)cc1,inactive: 17.5%
5,CCOC(=O)c1[nH]c(C)c(CCC(=O)NCc2ccccc2Cl)c1C,inactive: -4.96%
6,N#Cc1ccc(CSc2nc3c(c(=O)[nH]2)CCC3)cc1,inactive: -1.38%
7,COc1cc(NC(=O)CSc2nc(-c3ccc(C)cc3)nc3c2Cc2ccccc2O3)cc(OC)c1,inactive: 18.2%
8,O=C(CC1C(=O)OCCN1Cc1ccccc1)Nc1ccc(F)cc1 (stereo not given),inactive: -19.4%
9,Cc1ccc(C)c(NC(=O)Cn2cc(C(=O)c3ccc(Cl)cc3)c(=O)c3ccc(C)nc32)c1,inactive: 0.801%
10,Cc1ccc(S(=O)(=O)c2nc(-c3cccc(C)c3)oc2N2CCN(c3ccccc3)CC2)cc1,inactive: 1.5%
11,CCCSc1ncc(Cl)c(C(=O)Nc2nc3ccc(OCC)cc3s2)n1,inactive: 9.48%
12,Cc1nc2nc(SCC(=O)NCCc3ccc(Cl)cc3)nn2c(C)c1Cc1ccccc1,inactive: 1.62%
13,COC(=O)c1sc2cccc(F)c2c1S(=O)(=O)N1CCN(c2ccc(F)cc2)CC1,inactive: 0.827%
14,Cc1ccc(CNC(=O)c2ccc3c(=O)n(-c4ccccc4)c(=O)[nH]c3c2)cc1,inactive: 13.9%
15,CCOC(=O)CC1c2cc(OCC)c(OCC)cc2CCN1C(=O)Nc1cccc(Cl)c1 (stereo not given),inactive: 5.08%
16,Cc1cccn2c(=O)c3cc(C(=O)NCc4ccccc4)c(=N)n(CCOCCO)c3nc12,inactive: -1.37%
17,CCc1ccccc1NC(=O)CSc1nc(-c2ccccc2OC)nc2c1Cc1c(CO)cnc(C)c1O2,inactive: -13.5%
18,COC(=O)C(CCSC)NC(=O)c1cc2c(n(-c3ccc(C)cc3)c1=O)CC(C)(C)CC2=O (stereo not given),inactive: -0.548%
19,Cc1ccc2c(c1)cc1c(=O)n(CC(=O)NC3CCCCC3)nc(C)n12,inactive: 5.25%
20,COc1ccc(CNC(=O)c2cc3c(s2)-c2ccccc2OC3)cc1,inactive: 18%

row,SMILES,"activity change, negative = cytotoxicity"
1,CCC(C)NC(=O)C(=O)Nc1c2c(nn1-c1ccccc1)CS(=O)(=O)C2 (stereo not given),inactive: -2.15%
2,CC(C)CCNC(=O)C1CCC(Cn2c(=O)c3sccc3n(CC(=O)NC(C)C)c2=O)CC1 (stereo not given),inactive: -5.05%
3,O=C(Cn1c(=O)n(-c2ccc(F)c(Cl)c2)c(=O)c2sc3ccccc3c21)NC1CCCC1,inactive: 3.3%
4,Cc1ccc(-n2c(=O)c3oc4ccccc4c3n(Cc3ccccc3F)c2=O)cc1C,inactive: 0.648%
5,O=C(CN1C(=O)CCSc2ccccc21)Nc1ccccc1F,inactive: 17.3%
6,COc1ccc(NC(=O)CSc2nc3c(oc4ccccc43)c(=O)n2-c2ccc(C)c(C)c2)cc1,inactive: 5.7%
7,CCOC(=O)c1c(NC(C)=O)c2c3c(sc2n1Cc1nc(-c2ccccc2C)oc1C)CCCC3,inactive: 1.62%
8,O=C(c1ccc2c(c1)N(Cc1ccc(Cl)cc1)C(=O)c1ccccc1S2(=O)=O)N1CCCCC1,inactive: -2.67%
9,CC1CN(C(=O)CCC(=O)NCc2ccc(F)cc2)c2cc(Cl)ccc2O1 (stereo not given),inactive: -2.39%
10,Cc1c(C)n(C)c2ccc(C(=O)N3CCN(c4ccccc4)CC3)cc12,inactive: -4.3%
11,Cc1c(Cl)cccc1NC(=O)C(C)n1nnc2sc3c(c2c1=O)CCCC3 (stereo not given),inactive: -1.56%
12,CSc1ncc(Cl)c(C(=O)N(Cc2ccc(N(C)C)cc2)Cc2ccco2)n1,inactive: -22%
13,Cc1cc(C)cc(NC(=O)Cn2c(=O)c3ccccc3n3nncc23)c1,inactive: 2.16%
14,CCOC(=O)c1ccccc1NC(=O)c1sc2nc3n(c(=O)c2c1C)CCCC3,inactive: 2.71%
15,Cc1ccc2c(=O)cc(C(=O)Nc3ccc(S(=O)(=O)N4CCCCCC4)cc3)oc2c1C,inactive: 3.15%
16,CCc1ccc(CNC(=O)CN2C(=O)c3cccnc3Oc3ccc(C)cc32)cc1,inactive: 10.3%
17,CC(CC(=O)Nc1ccc(Br)cc1F)S(=O)(=O)c1ccc2c(c1)NC(=O)CO2 (stereo not given),inactive: -14.2%
18,CCOC(=O)C1CCN(C(=O)C2CCN(C3=NS(=O)(=O)C(c4ccc(C)c(C)c4)=C3C)CC2)CC1,inactive: 5.8%
19,CCc1ccc(Cc2cnc(NC(=O)c3ccc4c(c3)CC(c3ccccc3)OC4=O)s2)cc1 (stereo not given),inactive: 8.85%
20,Cc1cccc(C2CC(=O)Oc3c2c(=O)n(C)c2ccccc32)c1 (stereo not given),inactive: 2.11%

row,SMILES,"activity change, negative = cytotoxicity"
1,Cc1ccc(CNC(=O)Cn2cc(C(=O)c3ccc(F)cc3)c(=O)c3ccc(C)nc32)cc1,inactive: -5.97%
2,COc1cc(C(=O)N2CCN(CCc3ccccn3)CC2)cc(OC)c1OC,inactive: -0.521%
3,CCn1ccc2cc(S(=O)(=O)N3CCC(C(=O)NCCc4ccc(C)cc4)CC3)ccc21,inactive: -1.9%
4,COc1ccc(NC(=O)CSCc2cnn(-c3ccccc3)c2-n2cccc2)cc1,inactive: -13.6%
5,CCC(C)NC(=O)c1ccc2nc(Cc3ccc(OC)cc3)oc2c1 (stereo not given),inactive: -0.571%
6,NS(=O)(=O)c1ccc(NC(=O)c2ccc3c(c2)CCN3S(=O)(=O)c2ccccc2)cc1,inactive: 0.822%
7,Cc1ccc(N(CC(=O)Nc2cc(C)cc(C)c2)S(=O)(=O)c2cccc3nonc23)cc1,inactive: -4.14%
8,CC1=C(c2ccc(C)cc2)S(=O)(=O)N(Cc2ccc(C(=O)Nc3ccc(F)cc3C)cc2)C1=O,inactive: -12.5%
9,Cc1c(Cl)cccc1NC(=O)CSc1ncccc1C(=O)Oc1ccccc1Cl,inactive: -2.52%
10,COC(=O)C(CCSC)NC(=O)c1c(C)oc2ncn(CC(C)C)c(=O)c12 (stereo not given),inactive: -29.4%
11,Cc1ccc(NC(=O)C(=O)NCC(c2cccnc2)N2CCN(C)CC2)cc1F (stereo not given),inactive: -5.23%
12,CCOCCSc1c(C)cnc2c1c(=O)n(C)c(=O)n2C,inactive: 0.375%
13,COc1cc2ccccc2cc1C(=O)Nc1ccc(Cl)c(-c2nc3ccccc3o2)c1,inactive: -23.2%
14,CCOc1ccc(NC(=O)Cn2ccn(-c3ccc(F)c(F)c3)c(=O)c2=O)cc1,inactive: 4.78%
15,COc1ccc(CNC(=O)c2cccc(-n3cnc4cccnc43)c2C)cc1,inactive: 7.7%
16,COc1cccc(C(=O)Nc2ccc(-c3cn4cccnc4n3)cc2)c1OC,inactive: 19.2%
17,O=C(Nc1ccc(F)cc1)[C@H](CSCc1ccccc1)N1Cc2ccccc2C1=O,inactive: 1.06%
18,Cc1ccc(N2CCN(C(=O)Cc3c(C(=O)O)c(C)cn3C)CC2)c(C)c1,inactive: -5.51%
19,Cc1ccc(S(=O)(=O)c2nnn3c2nc(N2CCN(c4ccc(F)cc4)CC2)c2cc(Cl)ccc23)cc1C,inactive: 2.28%
20,O=C(COC(=O)CCCC1=NS(=O)(=O)c2ccccc2N1)Nc1ccc(Br)cc1,inactive: -1.77%
